± gives the standard error. Variants at the background level are over-represented here.
B1: glmS ribozyme (parent)
chain: AUAAAAGCGCCAGAACUACAGAAAUGUAGUUGACGAGGAGGAGGUUUAUCGAAUUUUCGGCGGAUGCCUCCAAA

Assays:
Conditions in all cases: with glucosamine-6-phosphate
glucosamine-6-phosphate [1] = variants of: B1; assay: self-cleavage kobs at 40 uM GlcN6P; higher = faster cleavage; RNA array
Summary of the method: (§1)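 On sequenced MiSeq chips, barcoded ribozyme variants were made in situ by E. coli RNA polymerase and followed at 37 °C through a hybridised Cy3 probe. Glucosamine-6-phosphate was flowed in at 40 μM to 10 mM in HEPES/KCl/Mg(OAc)2 buffer. Exponential fits to normalised per-tile medians gave kobs, and weighted Michaelis–Menten fits gave kcat and KM.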

glucosamine-6-phosphate [2] = variants of: B1; assay: self-cleavage kobs at 2500 uM GlcN6P; higher = faster cleavage; RNA array
Summary of the method: as §1

glucosamine-6-phosphate [3] = variants of: B1; assay: self-cleavage kobs at 640 uM GlcN6P; higher = faster cleavage; RNA array
Summary of the method: as §1

glucosamine-6-phosphate [4] = variants of: B1; assay: self-cleavage kobs at 160 uM GlcN6P; higher = faster cleavage; RNA array
Summary of the method: as §1

glucosamine-6-phosphate [5] = variants of: B1; assay: self-cleavage kobs at 10000 uM GlcN6P; higher = faster cleavage; RNA array
Summary of the method: as §1

| Variant | self-cleavage kobs at 40 uM GlcN6P (glucosamine-6-phosphate [1]) [s⁻¹] | self-cleavage kobs at 2500 uM GlcN6P (glucosamine-6-phosphate [2]) [s⁻¹] | self-cleavage kobs at 640 uM GlcN6P (glucosamine-6-phosphate [3]) [s⁻¹] | self-cleavage kobs at 160 uM GlcN6P (glucosamine-6-phosphate [4]) [s⁻¹] | self-cleavage kobs at 10000 uM GlcN6P (glucosamine-6-phosphate [5]) [s⁻¹] |
| --- | --- | --- | --- | --- | --- |
| G38U A64G | < 1e-05 | < 1e-05 | – | – | – |
| G40U U57A C68A | < 1e-05 | – | < 1e-05 | – | – |
| A39C C70A | < 1e-05 | – | < 1e-05 | – | – |
| G41C A52C | < 1e-05 | < 1e-05 | < 1e-05 | < 1e-05 | < 1e-05 |
| G41C A52G | < 1e-05 | – | – | – | – |
| G40A A64C | < 1e-05 | – | – | – | – |
| G38U G59C | < 1e-05 | < 1e-05 | < 1e-05 | – | – |
| G40C A52G U55G | < 1e-05 | 4.2e-05 ± 1.1e-05 | – | – | – |
| G38U A39U C58G C71U | < 1e-05 | < 1e-05 | – | – | – |
| G41A A52U | < 1e-05 | – | – | – | 9.26e-05 ± 1.6e-05 |
| A39U C71G | 4.48e-05 ± 8.3e-06 | – | – | – | – |
| A39G A52C U65G C70A | < 1e-05 | – | – | – | < 1e-05 |
| A39G G44U C71U | < 1e-05 | – | – | – | – |
| G40U C68U | < 1e-05 | – | < 1e-05 | < 1e-05 | – |
| G41A U49C | < 1e-05 | < 1e-05 | < 1e-05 | < 1e-05 | – |
| A39G C50A | < 1e-05 | – | – | < 1e-05 | – |
| G38U U54C | < 1e-05 | – | < 1e-05 | < 1e-05 | – |
| G38U G44A | < 1e-05 | < 1e-05 | < 1e-05 | < 1e-05 | < 1e-05 |
| G38U G44U | < 1e-05 | – | < 1e-05 | < 1e-05 | < 1e-05 |
| G38U G44C | < 1e-05 | < 1e-05 | < 1e-05 | – | < 1e-05 |
| G38C G40C | < 1e-05 | < 1e-05 | < 1e-05 | < 1e-05 | < 1e-05 |
| A39G U45G | 0.00047 ± 6.3e-05 | 0.00467 ± 0.0013 | 0.00416 ± 0.00099 | 0.00207 ± 0.00047 | 0.0173 ± 0.0023 |
| A39C G60U C70A | < 1e-05 | – | – | – | – |
| A39C U57C | < 1e-05 | – | – | – | – |

Source: the supplement of paper PMC7125110
